# Assay results taken from the supplement of paper PMC4166925.
# ± gives the standard deviation of the averaged measurements. The full ranking holds about 33,000 sequences; the median of “E-score (dimensionless, -0.5 to 0.5)” is about -0.046, and the highest 2% start at about 0.36. Some of the results follow.
# Test system: T1, SpTbr T-box DNA-binding domain (GST fusion)
# T1 sequence: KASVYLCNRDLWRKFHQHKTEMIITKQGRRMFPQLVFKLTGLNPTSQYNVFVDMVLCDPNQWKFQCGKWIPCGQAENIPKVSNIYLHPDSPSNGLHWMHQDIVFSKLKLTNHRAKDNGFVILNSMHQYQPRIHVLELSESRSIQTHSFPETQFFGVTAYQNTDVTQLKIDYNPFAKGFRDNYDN
# Test: PBM E-score of 8-mer (E-score (dimensionless, -0.5 to 0.5)); Tbr is Tbrain of the sea star Patiria miniata (Pm) or the sea urchin Strongylocentrotus purpuratus (Sp); higher = stronger binding preference; most listed sequences are background and not binding sites
# Conditions: the construct has about 5 more residues each side
# Experimental: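 Universal protein-binding microarray (Agilent AMADID 016060, 60-bp probes with a 35-bp variable region) incubated with 200 nM GST-fused Strongylocentrotus purpuratus Tbr T-box DNA-binding domain (residues 362-554) in PBS pH 7.5. Scored for every ungapped 8-mer (given with its reverse complement) as E-score (range -0.5 to 0.5; >0.45 counts as bound) and Z-score of median probe intensity. Two replicate arrays (datasets 1 and 2).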
# 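Also: protein at 200 nM in PBS on universal double-stranded arrays.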
row,Sequence,PBM E-score of 8-mer
1,ACCAGCGA,0.131 ± 0.068
2,CGGGTAAC,0.187 ± 0.054
3,CAGCCGCA,0.0502 ± 0.064
4,ACAAGGGT,-0.00938 ± 0.021
5,GGAACTCA,-0.223 ± 0.031
6,TCATGGAA,-0.0871 ± 0.023
7,AGTAGCAC,0.307 ± 0.053
8,AAGGATAG,-0.159 ± 0.051
9,CTGACCGC,-0.233 ± 0.18
10,TCATAGGA,-0.255 ± 0.0034
11,ACATGGGT,-0.0645 ± 0.017
12,AGCTACGC,-0.043 ± 0.027
13,TAAAGAAA,-0.13 ± 0.11
14,ACGTTAGG,-0.121 ± 0.026
15,ACGAACGC,-0.0049 ± 0.0054
16,CGCGGATA,0.0485 ± 0.018
17,GGTAGTCA,-0.301 ± 0.037
18,ATCACCAG,-0.037 ± 0.034
19,ACTGAAAA,-0.137 ± 0.0042
20,CTTCTCTC,0.08 ± 0.04
21,CTTAGCTA,-0.119 ± 0.005
22,ACGCCTCG,0.373 ± 0.019
23,GCGTTGTA,0.0523 ± 0.011
24,CCATGAAA,-0.297 ± 0.0053
25,CTAGCCAC,-0.0819 ± 0.074

row,Sequence,PBM E-score of 8-mer
1,ACGGATCT,-0.0314 ± 0.037
2,GTATTCGA,0.0227 ± 0.011
3,GTGGGCGA,0.00498 ± 0.052
4,CCGGAGAC,0.00931 ± 0.14
5,CAGAGGAC,-0.121 ± 0.0091
6,ACTAGTAT,-0.0296 ± 0.0029
7,ATAGAACC,-0.113 ± 0.034
8,ACAGACCA,-0.22 ± 0.021
9,GGACTCCA,-0.184 ± 0.051
10,AGAAAACG,-0.22 ± 0.034
11,CCCCATGA,-0.299 ± 0.013
12,ACCATCCA,-0.225 ± 0.058
13,CCATCAAG,-0.23 ± 0.037
14,CCTGGGCA,-0.133 ± 0.0046
15,ATTAAGCG,-0.0837 ± 0.025
16,CGTCCGGA,-0.35 ± 0.056
17,ACGTCTAT,-0.0609 ± 0.029
18,CACGTATA,0.09176 ± 0.00022
19,AGCGTTCA,0.0694 ± 0.017
20,GGCAAACC,-0.15 ± 0.048
21,TAACCTCA,-0.153 ± 0.018
22,CATCGGAC,-0.137 ± 0.028
23,AGCTATGA,-0.23 ± 0.034
24,AAATCTGA,-0.0698 ± 0.0075
25,GCGGTGAA,-0.0362 ± 0.031

row,Sequence,PBM E-score of 8-mer
1,CATACCTC,0.0972 ± 0.12
2,ACTCATCC,-0.241 ± 0.082
3,AAACAGCC,0.0781 ± 0.0017
4,GCTACGAA,0.114 ± 0.023
5,ATGATTGG,-0.19 ± 0.041
6,AGCCTGAC,-0.174 ± 0.023
7,GCATGTAA,-0.068 ± 0.03
8,ATCAGGCA,-0.0264 ± 0.026
9,ACCTCTCT,0.0527 ± 0.025
10,GACCCACC,0.0332 ± 0.036
11,GATACCCA,-0.128 ± 0.036
12,AACGCTCC,-0.0485 ± 0.026
13,CAATCTGG,-0.2 ± 0.023
14,TAGATCAA,-0.225 ± 0.045
15,CACATTAA,0.0764 ± 0.025
16,AAAGTGAT,0.205 ± 0.0065
17,AAAGCGTA,-0.0604 ± 0.043
18,GCACGATA,-0.117 ± 0.014
19,ACTAAAGC,-0.0046 ± 0.012
20,AGATAAAA,-0.17 ± 0.043
21,AATTTCGT,-0.116 ± 0.0052
22,AGTAACGA,0.0895 ± 0.002
23,GACACATA,0.359 ± 0.005
24,AGGAACTC,-0.188 ± 0.019
25,CGCTTGAG,0.0359 ± 0.022

row,Sequence,PBM E-score of 8-mer
1,AAGCGACA,0.206 ± 0.027
2,AAGGTAGT,-0.0919 ± 0.035
3,AACGCAGC,-0.119 ± 0.12
4,TCGCTAAA,0.0612 ± 0.059
5,AGGTCCAT,-0.2878 ± 0.00046
6,CACTCACA,0.377 ± 0.017
7,ACTGTTCA,-0.0388 ± 0.05
8,CGATATCA,0.208 ± 0.0049
9,CACCGTCC,-0.0887 ± 0.064
10,AATCGCCG,-0.0609 ± 0.08
11,GCCGGTGA,0.0254 ± 0.033
12,AGGCCGCA,-0.0247 ± 0.035
13,ATTATATA,-0.254 ± 0.0049
14,CCGACACA,0.36 ± 0.022
15,AATGGAGT,-0.196 ± 0.015
16,ACCTAGCT,-0.0977 ± 0.033
17,AAAATCAT,-0.105 ± 0.033
18,ATGTCCTG,-0.0692 ± 0.062
19,ATTGGATG,-0.0731 ± 0.021
20,AGGTCTTC,-0.142 ± 0.053
21,GATCTTTA,0.017 ± 0.026
22,GACCACCA,-0.13 ± 0.0047
23,GTGCCCCA,-0.0876 ± 0.0044
24,AATTTCTA,-0.212 ± 0.046
25,AAACCCGG,-0.22 ± 0.045

row,Sequence,PBM E-score of 8-mer
1,TCAGACAA,-0.253 ± 0.014
2,CAGATAAA,-0.0966 ± 0.014
3,GGGCGATA,0.0321 ± 0.073
4,AATATCGG,-0.0749 ± 0.008
5,GTTGCCAA,0.202 ± 0.029
6,CGGTCTGA,-0.177 ± 0.0019
7,AATCGCAG,0.0391 ± 0.046
8,ATTCTGGA,-0.3349 ± 0.00046
9,CGAGGAAC,-0.0172 ± 0.03
10,AGAAATGC,-0.0483 ± 0.011
11,ACTATTAA,0.00251 ± 0.021
12,AAGCAGCA,-0.179 ± 0.014
13,ATTAGTCA,-0.0645 ± 0.04
14,CAGTTGGC,0.0384 ± 0.018
15,ACGCGATA,0.274 ± 0.014
16,GGCCATTA,-0.201 ± 0.0053
17,CGTGTACC,-0.0881 ± 0.032
18,CACATACG,0.134 ± 0.011
19,CACCGTTA,0.273 ± 0.015
20,AGGCTAAA,-0.205 ± 0.065
21,GTCTATGA,-0.0394 ± 0.079
22,CCGGCAAG,-0.0522 ± 0.069
23,AAATATTG,0.156 ± 0.0072
24,AAGGATCC,-0.247 ± 0.041
25,AATGATTA,0.0437 ± 0.042

row,Sequence,PBM E-score of 8-mer
1,GGCGACAC,0.381 ± 0.0043
2,CGTCTCGA,-0.229 ± 0.039
3,AGTTCATC,-0.00549 ± 0.034
4,AAGGATGT,-0.131 ± 0.091
5,GGCGGGTA,-0.0721 ± 0.048
6,CAAAACAA,-0.0399 ± 0.06
7,GACATTCC,-0.184 ± 0.032
8,AGGCGCTA,0.41 ± 0.023
9,CCGCCCAC,0.0475 ± 0.039
10,CACTCATG,0.137 ± 0.025
11,ACGCACAG,-0.0734 ± 0.02
12,CTTGCACC,0.278 ± 0.04
13,AAGGGCTA,-0.285 ± 0.0039
14,CGAGGATC,0.0468 ± 0.025
15,GGGTGACC,-0.0352 ± 0.046
16,CCTGGGAG,0.0895 ± 0.0077
17,AACGTTAC,-0.0506 ± 0.056
18,AACTATAC,-0.0681 ± 0.053
19,GCGATGCA,-0.0366 ± 0.034
20,GAAGATCA,-0.112 ± 0.028
21,CGAACAGA,0.0582 ± 0.028
22,ACCGACAT,-0.042 ± 0.038
23,GTCGCGAA,0.372 ± 0.025
24,ACCAAACC,0.185 ± 0.077
25,TATCCGAA,-0.311 ± 0.035

row,Sequence,PBM E-score of 8-mer
1,GAGAGCCA,0.0114 ± 0.059
2,CCGGGTTC,-0.071 ± 0.057
3,GCCAGGTA,0.0145 ± 0.079
4,CCAGGCTC,-0.277 ± 0.038
5,AAGATCAC,0.145 ± 0.058
6,CGCGCTTA,0.288 ± 0.0086
7,CATTTACA,0.209 ± 0.071
8,CTAGTTTA,-0.132 ± 0.14
9,AGGACGAG,-0.148 ± 0.052
10,ACTCATAT,0.00736 ± 0.051
11,AAAGTGGA,-0.0933 ± 0.021
12,GAGAGGCC,-0.066 ± 0.075
13,AATTGTGT,0.132 ± 0.052
14,GGTTGATA,-0.0354 ± 0.00093
15,ACTTGACG,0.251 ± 0.012
16,ACCCTCTG,0.0161 ± 0.013
17,CTTTGCGA,0.136 ± 0.0052
18,AAGGCCTA,-0.0978 ± 0.02
19,CGTGTTAG,0.332 ± 0.015
20,GCATGTTA,-0.0634 ± 0.0088
21,GAAAGGTC,-0.102 ± 0.033
22,ACGACGTA,-0.107 ± 0.01
